Laboratory results reported in patent US6448281B1 (Boehringer Ingelheim (Canada) Ltd., priority 2000, dated 2002).

Target: hepatitis C virus RNA dependent polymerase (NS5B) (Hepacivirus hominis (Hepatitis C virus), UniProt P26663)
Test: Inhibition of NS5B RNA dependent RNA polymerase activity (SPA, UMP-[5,6 3H] incorporation)
[1] = IC50 μM, first compound table (printed title TABLE 10; Table 1)

COc1ccc(C(NC(=O)c2ccc3c(c2)nc(-c2cc4ccccc4o2)n3C2CCCCC2)C(=O)O)cc1OC (stereo not drawn) [Entry 2038]
IC50 (IC50 μM, Table 2): 10 to 25 µM

CC(Cc1ccc(O)cc1)(NC(=O)c1ccc2c(c1)nc(-c1ccccn1)n2C1CCCCC1)C(=O)O (stereo not drawn) [Entry 2023]
IC50 (IC50 μM, Table 2): 10 to 25 µM

[N-]=[N+]=Nc1cc(C[C@H](NC(=O)c2ccc3c(c2)nc(-c2ccoc2)n3C2CCCCC2)C(=O)O)ccc1O [Entry 1248, (S)-3-(3-Azido-4-hydroxy-phenyl)-2-{[1-(1-cyclohexyl-2-furan-3-yl-1H-benzimidazol-5-yl)-methanoyl]-amino}-propionic Acid]
IC50 [1]: 1 to 5 µM

Cc1cc(-c2nc3cc(C(=O)N[C@@H](Cc4c[nH]c5ccc(O)cc45)C(=O)O)ccc3n2C2CCCCC2)n[nH]1 [Entry 2126]
IC50 (IC50 μM, Table 2): 1 to 5 µM

O=C(N[C@H](C(=O)O)[C@H](O)c1ccc(-c2nnn[nH]2)cc1)c1ccc2c(c1)nc(-c1ccoc1)n2C1CCCCC1 [Entry 18001]
IC50 (IC50, Table 18): < 1 µM

O=C(O)CNC(=O)N1CCC(NC(=O)c2ccc3c(c2)nc(-c2ccoc2)n3C2CCCCC2)C1 (stereo not drawn) [Entry 1191]
IC50 [1]: 10 to 25 µM

O=C(O)c1cccc(CC(NC(=O)c2ccc3c(c2)nc(-c2ccoc2)n3C2CCCCC2)C(=O)O)c1 (racemic) [Entry 16053, 3-(2-Carboxy-2-{[1-(1-cyclohexyl-2-furan-3-yl-1H-benzimidazol-5-yl)methanoyl]-amino}-ethyl)-benzoic Acid]
IC50 (IC50, Table 16): < 1 µM

O=C(O)c1ccc2c(c1)nc(-c1ccc3c(c1)OCCO3)n2C1CCCCC1 [Entry 7014]
IC50 (IC50 μM, Table 7): 1 to 5 µM

CCOC(=O)c1cccc(NC(=O)N[C@H]2CC[C@H](NC(=O)c3ccc4c(c3)nc(-c3ccoc3)n4C3CCCCC3)CC2)c1 [Entry 1208]
IC50 [1]: 10 to 25 µM

O=C(NC1CCCC(NCc2ccccc2C(=O)O)C1)c1ccc2c(c1)nc(-c1ccoc1)n2C1CCCCC1 (stereo not drawn) [Entry 1268]
IC50 [1]: 10 to 25 µM

CC(CC(=O)Nc1cccc(CC(=O)O)c1)NC(=O)CC(C)NC(=O)c1ccc2c(c1)nc(-c1ccoc1)n2C1CCCCC1 (stereo not drawn) [Entry 1168]
IC50 [1]: 10 to 25 µM

NC(=O)Nc1ccc2[nH]cc(C[C@H](NC(=O)c3ccc4c(c3)nc(-c3ccoc3)n4C3CCCCC3)C(N)=O)c2c1 [Entry 13013, 1-Cyclohexyl-2-furan-3-yl-1H-benzimidazole-5-carboxylic Acid [(S)-1-Carbamoyl-2-(5-ureido-1H-indol-3-yl)-ethyl]-amide]
IC50 (IC50, Table 13): < 1 µM

Cc1cnc(-c2nc3cc(C(=O)N[C@@H](Cc4c[nH]c5ccc(O)cc45)C(=O)O)ccc3n2C2CCCCC2)cn1 [Entry 2143]
IC50 (IC50 μM, Table 2): < 1 µM

CC(CC(=O)Nc1ccc(/C=C/C(=O)O)cc1)NC(=O)c1ccc2c(c1)nc(-c1ccoc1)n2C1CCCCC1 (stereo not drawn) [Entry 1162]
IC50 [1]: 1 to 5 µM

Cc1c(C(=O)O)ccc2c1nc(-c1ccoc1)n2C1CCCCC1 [Entry 5004, 1-Cyclohexyl-2-furan-3-yl-4-methyl-1H-benzimidazole-5-carboxylic Acid]
IC50 (IC50 μM, Table 5): 1 to 5 µM

O=C(N[C@@H](Cc1c[nH]c2ccc(O)cc12)C(=O)NC(CO)CO)c1ccc2c(c1)nc(-c1ccoc1)n2C1CCCCC1 [Entry 13014, 1-Cyclohexyl-2-furan-3-yl-1H-benzimidazole-5-carboxylic Acid [(S)-1-(2-Hydroxy-1-hydroxymethyl-ethylcarbamoyl)-2-(5-hydroxy-1H-indol-3-yl)-ethyl]-amide]
IC50 (IC50, Table 13): < 1 µM

O=C(O)c1ccc2c(c1)nc(-c1ccccn1)n2-c1ccccn1 [Entry 7009]
IC50 (IC50 μM, Table 7): 10 to 25 µM

O=C(O)CNC(=O)N1CCC(NC(=O)c2ccc3c(c2)nc(-c2ccoc2)n3C2CCCCC2)CC1 [Entry 1195]
IC50 [1]: 10 to 25 µM

O=C(O)c1ccc2c(c1)nc(-c1ccccn1)n2C1CCCC1 [Entry 7025]
IC50 (IC50 μM, Table 7): 10 to 25 µM

O=C(N[C@@H](CO)C(=O)O)c1ccc2c(c1)nc(-c1ccccn1)n2C1CCCCC1 [Entry 2021]
IC50 (IC50 μM, Table 2): 10 to 25 µM

C=C(CC(=O)N[C@H]1CC[C@H](NC(=O)c2ccc3c(c2)nc(-c2ccoc2)n3C2CCCCC2)CC1)C(=O)O [Entry 1223]
IC50 [1]: 10 to 25 µM

O=C(O)/C=C/c1cc(C[C@H](NC(=O)c2ccc3c(c2)nc(-c2ccoc2)n3C2CCCCC2)C(=O)O)ccc1O [Entry 16064, (E)-3-[5-((S)-2-Carboxy-2-{[1-(1-cyclohexyl-2-furan-3-yl-1H-benzimidazol-5-yl)-methanoyl]-amino}-ethyl)-2-hydroxyphenyl]-acrylic Acid]
IC50 (IC50, Table 16): < 1 µM

O=C(N[C@H]1CC[C@H](NC(=O)[C@@H]2CCCC[C@@H]2C(=O)O)CC1)c1ccc2c(c1)nc(-c1ccoc1)n2C1CCCCC1 [Entry 1225]
IC50 [1]: 5 to 10 µM

Cc1cc(-c2nc3cc(C(=O)N[C@@H](Cc4c[nH]c5ccc(O)cc45)C(=O)O)ccc3n2C2CCCCC2)no1 [Entry 2127]
IC50 (IC50 μM, Table 2): < 1 µM

O=C1NC(=S)SC1=Cc1ccc(C[C@H](NC(=O)c2ccc3c(c2)nc(-c2ccoc2)n3C2CCCCC2)C(=O)O)cc1 [Entry 16024, (S)-2-{[1-(1-Cyclohexyl-2-furan-3-yl-1H-benzoimidazol-5-yl)-methanoyl]-amino}-3-[4-(4-oxo-2-thioxo-thiazolidin-5-ylidenemethyl)-phenyl]-propionic Acid]
IC50 (IC50, Table 16): < 1 µM

Nc1ccc(C[C@H](NC(=O)c2ccc3c(c2)nc(-c2ccoc2)n3C2CCCCC2)C(=O)O)cc1 [Entry 16003]
IC50 (IC50, Table 16): < 1 µM

COc1ccc([C@H](NC(=O)c2ccc3c(c2)nc(-c2ccoc2)n3C2CCCCC2)C(=O)O)cc1OC [Entry 16006, (S)-{[1-(1-Cyclohexyl-2-furan-3-yl-1H-benzoimidazole-5-yl)-methanoyl]-amino}-(3,4-dimethoxyphenyl)acetic Acid]
IC50 (IC50, Table 16): < 1 µM

COc1ccc(C(NC(=O)c2ccc3c(c2)nc(-c2cccc(O)c2)n3C2CCCCC2)C(=O)O)cc1OC (stereo not drawn) [Entry 2028]
IC50 (IC50 μM, Table 2): 10 to 25 µM

COc1ccc(CCNC(=O)c2ccc3c(c2)nc(-c2cccc(O)c2)n3C2CCCCC2)cc1OC [Entry 2002]
IC50 (IC50 μM, Table 2): 10 to 25 µM

COC(=O)[C@H](Cc1c[nH]c2ccc(OCC(=O)O)cc12)NC(=O)c1ccc2c(c1)nc(-c1ccoc1)n2C1CCCCC1 [Entry 11008]
IC50 (IC50, Table 11): < 1 µM

CN(C(=O)c1ccc2c(c1)nc(-c1ccoc1)n2C1CCCCC1)[C@@H](Cc1ccc(O)cc1)C(=O)O [Entry 10001]
IC50 (IC50 μM, Table 10): 10 to 25 µM

CC(C)Nc1nc([C@H](Cc2ccc(OCC(=O)O)cc2)NC(=O)c2ccc3c(c2)nc(-c2ccoc2)n3C2CCCCC2)cs1 [Entry 1133, {4-[(S)-2-{[1-(1-Cyclohexyl-2-furan-3-yl-1H-benzimidazol-5-yl)-methanoyl]-amino}-2-(2-isopropylamino-thiazol-4-yl)-ethyl]-phenoxy}-acetic Acid]
IC50 [1]: 1 to 5 µM

CN(C)CCCNC(=O)COc1ccc(-c2nc3cc(C(=O)NCc4ccc(S(C)(=O)=O)cc4)ccc3n2C2CCCCC2)cc1 [Entry 2039]
IC50 (IC50 μM, Table 2): 10 to 25 µM

COC(=O)[C@H](Cc1c[nH]c2ccc(OCC(=O)O)cc12)NC(=O)c1ccc2c(c1)nc(-c1ccoc1)n2[C@@H]1CCCC[C@H]1O [Entry 22005]
IC50 (IC50 μM, Table 22): < 1 µM

COC(=O)[C@H](Cc1c[nH]c2ccc(OCC(=O)O)cc12)NC(=O)c1ccc2c(c1)nc(-c1ccoc1)n2C1CCCC1 [Entry 22004]
IC50 (IC50 μM, Table 22): < 1 µM

O=C(O)c1cccc(CN2CCC(NC(=O)c3ccc4c(c3)nc(-c3ccoc3)n4C3CCCCC3)CC2)c1 [Entry 1292]
IC50 [1]: 10 to 25 µM

C[C@@H](O)[C@H](NC(=O)c1ccc2c(c1)nc(-c1ccccn1)n2C1CCCCC1)C(=O)O [Entry 2019]
IC50 (IC50 μM, Table 2): 10 to 25 µM

O=C(N[C@@H](Cc1c[nH]c2ccc(O)cc12)C(=O)O)c1ccc2c(c1)nc(-c1ccc(OCCO)cc1)n2C1CCCCC1 [Entry 12010]
IC50 (IC50, Table 12): < 1 µM

COc1ccc(C(NC(=O)c2ccc3c(c2)nc(-c2ccccc2)n3C2CCCCC2)C(=O)O)cc1OC (stereo not drawn) [Entry 2064]
IC50 (IC50 μM, Table 2): 1 to 5 µM

O=C(N[C@H](CO)C(=O)O)c1ccc2c(c1)nc(-c1ccccn1)n2C1CCCCC1 [Entry 2020]
IC50 (IC50 μM, Table 2): 10 to 25 µM

O=C(O)COc1ccc2[nH]cc(C[C@H](NC(=O)c3ccc4c(c3)nc(-c3ccc(OCC(=O)NCCNC(=S)Nc5ccc(-c6c7ccc(=O)cc-7oc7cc(O)ccc67)c(C(=O)O)c5)cc3)n4C3CCCCC3)C(=O)O)c2c1 [Entry 12022, 5-(3-{2-[2-(4-{5-[(S)-1-Carboxy-2-(5-carboxymethoxy-1H-indol-3-yl)-ethylcarbamoyl]-1-cyclohexyl-1H-benzimidazol-2-yl}-phenoxy)-ethanoylamino]-ethyl}-thioureido)-2-(6-hydroxy-3-oxo-3H-xanthen-9-yl)-benzoic Acid]
IC50 (IC50, Table 12): < 1 µM

Cn1ccnc1-c1nc2cc(C(=O)N[C@@H](Cc3c[nH]c4ccc(O)cc34)C(=O)O)ccc2n1C1CCCCC1 [Entry 12009]
IC50 (IC50, Table 12): < 1 µM

CC/C(=C\c1cccc(NC(=O)c2ccc3c(c2)nc(-c2ccoc2)n3C2CCCCC2)c1)C(=O)O [Entry 1236]
IC50 [1]: 5 to 10 µM

CN(C)CCNC(=O)[C@H](Cc1ccc(O)cc1)NC(=O)c1ccc2c(c1)nc(-c1ccoc1)n2C1CCCCC1 [Entry 1117]
IC50 [1]: 1 to 5 µM

Cc1cc(CC(NC(=O)c2ccc3c(c2)nc(-c2ccoc2)n3C2CCCCC2)C(=O)O)cc(C)c1O (stereo not drawn) [Entry 16034]
IC50 (IC50, Table 16): < 1 µM

O=C(Nc1cccc(C(=O)O)c1)NC1CCCC(NC(=O)c2ccc3c(c2)nc(-c2ccoc2)n3C2CCCCC2)C1 (stereo not drawn) [Entry 1205]
IC50 [1]: 1 to 5 µM

O=C(O)c1cccc(NC(=O)N2CCCC(NC(=O)c3ccc4c(c3)nc(-c3ccoc3)n4C3CCCCC3)C2)c1 (stereo not drawn) [Entry 1209]
IC50 [1]: 1 to 5 µM

O=C(NC(C(=O)O)c1ccc(C(F)(F)F)cc1)c1ccc2c(c1)nc(-c1ccoc1)n2C1CCCCC1 (stereo not drawn) [Entry 1002]
IC50 [1]: 10 to 25 µM

Cc1ccc(C(NC(=O)c2ccc3c(c2)nc(-c2ccoc2)n3C2CCCCC2)C(=O)O)cc1C (stereo not drawn) [Entry 1010]
IC50 [1]: 1 to 5 µM

NC(=O)[C@H](Cc1c[nH]c2ccc(NS(=O)(=O)C(F)(F)F)cc12)NC(=O)c1ccc2c(c1)nc(-c1ccoc1)n2C1CCCCC1 [Entry 13007]
IC50 (IC50, Table 13): < 1 µM

CC(NC(=O)C(Cc1ccc(O)cc1)NC(=O)c1ccc2c(c1)nc(-c1ccoc1)n2C1CCCCC1)C(=O)O (stereo not drawn) [Entry 1016]
IC50 [1]: 1 to 5 µM
